The values below come from paper PMC12136788.

The labels stand for the following.
T1: UNK ZnF1-6 (called full-length) (human, UniProt Q9C0B0 30-357)
T1 sequence: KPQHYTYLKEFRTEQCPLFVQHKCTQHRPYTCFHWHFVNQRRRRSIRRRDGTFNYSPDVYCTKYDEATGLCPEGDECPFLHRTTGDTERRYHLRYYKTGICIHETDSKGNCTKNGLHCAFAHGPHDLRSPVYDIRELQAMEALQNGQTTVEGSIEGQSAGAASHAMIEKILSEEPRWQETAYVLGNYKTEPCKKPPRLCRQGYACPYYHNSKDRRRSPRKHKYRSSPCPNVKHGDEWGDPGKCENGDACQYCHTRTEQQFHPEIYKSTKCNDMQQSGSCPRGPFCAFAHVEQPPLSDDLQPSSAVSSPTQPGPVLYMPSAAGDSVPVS

B1: chr1:2308404:2308505:+|3pUTR|ENSG00000157933|unk|FALSE|unique (ssRNA)
RNA: GGGAGUUCUACAGUCCGACGAUCUUCUUUGCUUUUGUUUUCUUUGCGGUUGUUCUGUGUGCAUGGAUUCCACACCUCUGCCGUAGGUAGAUCCGUCAGCGGGCAUUAUUACCGUGUCUUGUAAAGGGUCGGUUUUGUUAUGCACAACAGAGGAUUGAGCAUCA
B2: chr10:25598329:25598431:+|CDS|ENSG00000151025|unk|FALSE|unique (ssRNA)
RNA: GGGAGUUCUACAGUCCGACGAUCAUCGAUGUUACAGAAGUCUCUCAGUGUCAUAGCAAGCGCCAAGGAGAAGACUCUUGGAUUAGCUGGGAAAACCCAAACAGCAGGUGUGGAAGAACGCACUAAAUCCCAGAAACCUUUGCCCAACAGAGGAUUGAGCAUCA
B3: chr9:37441208:37441377:-|CDS|ENSG00000168795|unk|total|mutant (ssRNA)
RNA: GGGAGUUCUACAGUCCGACGAUCAGGGCCGGUGAUAUCCAUAUUUUGGAAGUCACAAAUAACCCCGAGCAUAAGUCCACUUUCCGUAUUUCGAAUUUUCUUAACAAGAGCAGAGGAAAUAACUUUACUGCAAAUCAGAACAAUCAACAGAGGAUUGAGCAUCA
B4: chr19:13097725:13097826:+|3pUTR|ENSG00000008441|msi1|FALSE|unique (ssRNA)
RNA: GGGAGUUCUACAGUCCGACGAUCUGAGCCAGACGCCAACUUGACCCUCACCAGCAUUAUCAGGAGCGCGCUCAGCAAGUUGGUAGUUUCCUCCCCCCUUUCCCGGCGCCCCUCCCGCCCCCAUUCAACAUCUCUCAUCCUAUCCAACAGAGGAUUGAGCAUCA
B5: chr1:20742972:20743075:-|3pUTR|ENSG00000127483|unk|FALSE|unique (ssRNA)
RNA: GGGAGUUCUACAGUCCGACGAUCUAACCCUUUCUUAUUUGUAUUUGUUUUAGUAUUGUGAAGUUGUGUUAAAUAGUACUAGCUAGAAAUACAAAUUUCUGGUUAUCAUUUCUCUUCCCUGUGGCACUUGACAUUUUAAUUGUCCAACAGAGGAUUGAGCAUCA
B6: chr22:49888080:49888186:+|3pUTR|ENSG00000100426|unk|total|mutant (ssRNA)
RNA: GGGAGUUCUACAGUCCGACGAUCUGGCUUAUUAACAGGGAAGAAGCUUGUUAUAUUCCAGUUGUAAGAACCGCCUCCGUGUUCCGAUUUUUUUAUGACCGGGAAGAUGCGGCCAUCACUGGGAUAUUUUCAAAUCCCAAGGACCAACAGAGGAUUGAGCAUCA
B7: chr7:139284418:139284519:+|CDS|ENSG00000157741|unk|total|mutant (ssRNA)
RNA: GGGAGUUCUACAGUCCGACGAUCGCAAUGAAUGUACCUGCCAGCAGAGGCCGCAACCUUAACUCAAGCGGAGCUAACCGGACCCGUCUGUCUGGGGGAACAGGAAGUGGAACACAGGGUGCUACCAAACCAUUGUCUACUCCACAACAGAGGAUUGAGCAUCA
B8: chr14:73275881:73276001:-|3pUTR|ENSG00000133961|unk|total|mutant (ssRNA)
RNA: GGGAGUUCUACAGUCCGACGAUCAAAUAUUAUAUAUAUCAAAAGCCAAAAUCUUUAUUUUUAUGCAUUCCGAAUAUUUUAAACCGUUCUCAGAUAUUAAGAAGUUGUAUGAGUUGUAAGUAAUCUUGCCAAAGGUAAAGGGGCCAACAGAGGAUUGAGCAUCA
B9: chr21:25606471:25606579:-|CDS|ENSG00000154719|unk|total|mutant (ssRNA)
RNA: GGGAGUUCUACAGUCCGACGAUCUGAUCUCUUUAAUAAAGAGAAAGCCAGGCAGUUAUCAUUAACUCCCCGAACUGAGAAGACCGAAGUUAAGCAUGUUGGGAAAACUGACCCCGGUACUGUCUUCGUGAUGAAUAAAAACAUCAACAGAGGAUUGAGCAUCA
B10: chr3:179570125:179570235:+|CDS|ENSG00000136518|unk|FALSE|unique (ssRNA)
RNA: GGGAGUUCUACAGUCCGACGAUCAAGCACAUUAAUGGAAAUAGAUGGCGAUAAAGGCAAACAAGGCGGUCCCACCUACUACAUAGAUACUAAUGCUCUGCGUGUUCCGAGGGAGAAUAUGGAGGCCAUUUCACCUCUAAAAAACAACAGAGGAUUGAGCAUCA
B11: chr17:5384886:5384987:+|3pUTR|ENSG00000029725|unk|FALSE|unique (ssRNA)
RNA: GGGAGUUCUACAGUCCGACGAUCGGUUUAAGACUAGUCCCUUGGAUAAGCCCCAAGCGAAUUUGUCUUCAGAUUAUUAAAAUUAGUGCUGUAAAUCAGGGUGGGCAAUUCACAGCCUUUCUGAACUGACUGAACUAGAGCUUGCAACAGAGGAUUGAGCAUCA
B12: chr12:39618871:39619093:-|CDS|ENSG00000173208|unk|FALSE|unique (ssRNA)
RNA: GGGAGUUCUACAGUCCGACGAUCUAUUAUGAUGUUCUCCCAAUCUGUGGCUCACUUGUAUUCCAAUCUGACCAAACCUAUUUUAGAUGUAAUGCUGACCUCCUAUACACUCAUUCAAACUGCUACAUCCAGAGGAGCAAGCCCCAACAGAGGAUUGAGCAUCA
B13: chr11:119418913:119419014:-|3pUTR|ENSG00000154096|msi1|total|mutant (ssRNA)
RNA: GGGAGUUCUACAGUCCGACGAUCAUCGGGACCAGAAACCUGGGAGAGACUUGGAUGAGGAGUGGUUGGGCUGUGCCUGGGCCCCGCACGGACAUGGUCUGUCCUGACAGCACUCCUCGGCAGGCAUGGCUGGUGCCUGAAGACCAACAGAGGAUUGAGCAUCA
B14: ENSG00000107863:be:win_1701|CDS|ENSG00000107863|bound_else_gene|NA|bound_elsewhere_windowed (ssRNA)
RNA: GGGAGUUCUACAGUCCGACGAUCUGAUAACAGGCGAAUGAGUGGUAGAGGAGUGGGAUCUGUGUCGCAGUUUAAAAAAAUUCCACCAGAUCUAAAAACAUUGCAGUCAAACAGAAAUUUUCAGACUACUUGUGGAAUGUCACUCAACAGAGGAUUGAGCAUCA

The list shows a part of the results.

The assay deals with T1, UNK ZnF1-6 (called full-length). In words: nsRBNS (natural sequence RNA bind-n-seq); RBNS binding buffer (assumed for nsRBNS): 25 mM Tris pH 7.5, 150 mM KCl, 3 mM MgCl2, 0.01% Triton X-100, 500 ug/ml BSA, 20 U/ml SUPERase-In, 4 C; UNK is unkempt and MSI1 is Musashi-1; names of the RNAs are library labels; protein concentration not given here; high values mean tight binding.
The molecule B1 yielded a binding signal of 0.457 enrichment R.

Molecule B2 gave a binding signal of 0.641 enrichment R.

Molecule B3 registered a binding signal of 0.258 enrichment R.

In turn, B4 gave a binding signal of 0.939 enrichment R.

The molecule B5 yielded a binding signal of 1.33 enrichment R.

In the case of B6, the binding signal was 0.562 enrichment R.

In turn, B7 came in with a binding signal of 0.688 enrichment R.

As for B8, the binding signal turned out to be 1.13 enrichment R.

For B9, the binding signal amounted to 0.332 enrichment R.

For the molecule B10, the binding signal turned out to be 0.985 enrichment R.

Turning to B11, the binding signal amounted to 0.652 enrichment R.

Molecule B12 displayed a binding signal of 0.778 enrichment R.

In turn, B13 came in with a binding signal of 0.931 enrichment R.

In turn, B14 registered a binding signal of 0.544 enrichment R.
